Assay results reported in publication PMC4336329 (PLoS ONE, 2015).
In all, about 310,000 compounds went through this assay and about 2,200 (0.71%) showed an effect of 50% or more. Effects have a minus sign here. Some of the results follow.

Molecular target: human ether-à-go-go-related gene (hERG) potassium channel (human, UniProt Q12809)
Test: primary screen, population patch clamp on CHO cells stably expressing hERG

Sequence of human ether-à-go-go-related gene (hERG) potassium channel (Q12809 whole entry, looked up): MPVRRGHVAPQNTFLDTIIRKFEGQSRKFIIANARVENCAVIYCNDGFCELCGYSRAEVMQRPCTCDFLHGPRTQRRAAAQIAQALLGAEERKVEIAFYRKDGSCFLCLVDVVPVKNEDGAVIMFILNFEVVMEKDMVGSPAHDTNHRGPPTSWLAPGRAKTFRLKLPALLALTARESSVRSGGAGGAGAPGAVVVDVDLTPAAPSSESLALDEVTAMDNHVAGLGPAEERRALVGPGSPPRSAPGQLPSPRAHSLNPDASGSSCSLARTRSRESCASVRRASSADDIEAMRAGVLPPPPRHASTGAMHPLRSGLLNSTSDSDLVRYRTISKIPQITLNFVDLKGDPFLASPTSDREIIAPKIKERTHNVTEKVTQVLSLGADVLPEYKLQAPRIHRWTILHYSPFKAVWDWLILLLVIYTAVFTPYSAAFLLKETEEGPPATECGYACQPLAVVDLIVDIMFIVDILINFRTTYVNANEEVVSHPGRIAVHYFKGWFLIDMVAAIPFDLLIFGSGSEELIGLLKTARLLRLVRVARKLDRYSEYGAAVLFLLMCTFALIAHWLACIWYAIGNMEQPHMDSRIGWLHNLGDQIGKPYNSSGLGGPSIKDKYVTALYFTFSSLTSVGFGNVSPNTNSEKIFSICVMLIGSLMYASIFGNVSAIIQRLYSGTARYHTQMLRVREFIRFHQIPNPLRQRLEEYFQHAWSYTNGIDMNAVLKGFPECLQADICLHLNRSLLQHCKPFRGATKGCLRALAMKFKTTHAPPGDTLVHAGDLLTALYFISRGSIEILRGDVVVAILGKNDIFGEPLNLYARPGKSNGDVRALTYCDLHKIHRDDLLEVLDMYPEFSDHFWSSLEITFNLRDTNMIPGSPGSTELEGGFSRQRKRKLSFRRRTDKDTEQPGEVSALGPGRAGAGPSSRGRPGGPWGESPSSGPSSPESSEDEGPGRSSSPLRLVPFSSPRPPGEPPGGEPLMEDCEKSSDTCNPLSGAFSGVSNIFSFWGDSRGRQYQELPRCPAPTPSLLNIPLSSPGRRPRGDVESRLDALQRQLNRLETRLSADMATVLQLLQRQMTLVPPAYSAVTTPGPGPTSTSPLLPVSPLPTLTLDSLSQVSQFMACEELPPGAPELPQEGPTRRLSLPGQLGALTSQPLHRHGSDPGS

Row | Structure (SMILES) | hERG current change (%, negative = inhibition) at 1uM [%]
1 | COc1ccc(NC(=S)N2CCN(CCN=CC3=C(O)CC(c4ccccc4)CC3=O)CC2)cc1 (centres unmarked) | 1.43
2 | Cc1ccc(CSc2nc(-c3ccccc3)c(C#N)c(=O)[nH]2)cc1 | 11.5
3 | COc1ccc(C(=O)N2CCCC(CO)(Cc3ccccc3C)C2)o1 (centres unmarked) | 1.62
4 | CCOC(=O)c1cnn(-c2ccccc2)c1NC(=O)c1ccc(C)cc1 | -14.6
5 | O=C(c1csc2ccccc12)N1CCN(c2ccccn2)CC1 | -6.14
6 | CCC(CC)C(=O)Nc1c(C)n(C)n(-c2ccccc2)c1=O | 11.3
7 | CNC(=S)N1N=C(c2ccc(Br)cc2)CC1c1ccc(OC)cc1 (centres unmarked) | 14.6
8 | CCN(CC)CCNC(=O)Cn1cnc2sc(C)c(S(=O)(=O)N3CCN(c4ncccn4)CC3)c2c1=O | 13.8
9 | Nc1c(C(=O)CSc2nncn2-c2ccccc2)c(=O)[nH]c(=O)n1C1CC1 | 4.81
10 | S=c1nc(-c2ccccc2Cl)[nH][nH]1 | 19.4
11 | O=C(Nc1ccc(Cl)cc1)C1CCCN(C2=NS(=O)(=O)c3ccccc32)C1 (centres unmarked) | -13.1
12 | COc1cc(NC(=O)c2cc3ccccc3cc2OC)ccc1NC(=O)c1cccs1 | 16.4
13 | CCc1ccc(NC(=O)CCc2c(C)nn(-c3ccc(N4CCOCC4)nn3)c2C)cc1 | 10.5
14 | COc1ccc(C2C(CC(=O)O)=C(Nc3ccccc3)C(=O)N2c2ccccc2)cc1 (centres unmarked) | 16.1
15 | Cc1cccc(-c2sc(Nc3ccccc3)n[n+]2-c2ccccc2)c1.[Cl-] | -10.2
16 | Cc1[nH]n(-c2ccccc2)c(=O)c1/C=N/NC(=O)c1cccc([N+](=O)[O-])c1 | 7.96
17 | CCOc1ccccc1NC(=O)NC1CC2CCCC(C1)N2Cc1nnnn1CCc1ccccc1 (centres unmarked) | 13.4
18 | Cc1[nH]c(=O)[nH]c(=O)c1/C=C/C(=O)OCC(C)C | 9.57
19 | Cc1cc(-c2nnc(SCC(=O)NC3CCCC3)o2)no1 | -3.78
20 | CCOP(=O)(OCC)C(Nc1cccc([N+](=O)[O-])c1)c1ccccc1 (centres unmarked) | 1.26
21 | O=C(Nc1ccccc1)C1CC=CCC1C(=O)OCC1CCCO1 (centres unmarked) | -5.31
22 | CCC(=O)N1CCc2cc(S(=O)(=O)NC(Cc3ccccc3)C(=O)NC3CCCC3)ccc21 (centres unmarked) | 21.3
23 | CC(=O)Nc1cccc(C(=O)OCC(=O)Nc2c(C)nn(-c3ccccc3)c2C)c1 | 15.3

Row | Structure (SMILES) | hERG current change (%, negative = inhibition) at 1uM [%]
24 | CC(C)(C)c1cc(NC(=O)c2cccc(S(=O)(=O)N3CCOCC3)c2)no1 | 8.95
25 | Cc1nn(Cc2cccc(C(=O)NC3CCCCC3)c2)c(C)c1Cl | 4.01
26 | COc1ccc(OC)c(C2C(C#N)=C(N)N(N(C)C)C3=C2C(=O)CC(C)(C)C3)c1 (centres unmarked) | 10.1
27 | Cc1cc(C)n(Cc2nc3ccccc3n2C)n1 | 16.4
28 | O=C(NCC1OCCc2ccccc21)c1ccc(NC(=O)c2ccccc2Cl)cc1 (centres unmarked) | 18.9
29 | O=[N+]([O-])c1cn(-c2nc(-c3ccco3)cc(C(F)(F)F)n2)cn1 | 2.23
30 | O=C(c1ccc(=O)n(Cc2ccccc2)n1)N1CCN(C/C=C/c2ccccc2)CC1 | -10
31 | C=CCNC(=S)NCC1COc2ccccc2O1 (centres unmarked) | 12.3
32 | COc1cccc(C2=NOC(C(=O)NC(C)(C)C)C2)c1 (centres unmarked) | 14.9
33 | COc1ccc2c(=O)c3c(=O)n(Cc4ccco4)c(-c4ccccc4)nc3oc2c1 | -4.12
34 | Cc1ccc(C(=O)N/C(=C\c2ccc(C)o2)C(=O)O)cc1 | 10.9
35 | Cl.SC(COCc1ccccc1)CN1CCN(Cc2ccc3c(c2)OCO3)CC1 (centres unmarked) | 6.58
36 | CC1SC(c2ccccc2Cl)NC1=O (centres unmarked) | 21.2
37 | O=C(CN1CCCC1)N/N=C/c1ccc(-c2cccc(Cl)c2)o1 | -43.9
38 | CC(C)N(C(=S)NC1CCCCC1)c1ccccc1 | 13.9
39 | CC(C)OC(=O)Cn1c(=O)oc2ccccc21 | 11
40 | COc1ccccc1NC(=O)Cn1cnc2c(nnn2-c2ccc(C)cc2)c1=O | 6.79
41 | Cc1ccc(OCc2cc(C(=O)N3CCN(C)C[C@@H]3c3ccccc3)no2)cc1C | 4.16
42 | O=C(O)/C=C/C(=O)Nc1ccc(Cl)c(C(=O)O)c1 | 10.1
43 | CCOC(=O)C1CCN(S(=O)(=O)c2ccc3[nH]c(=O)ccc3c2)CC1 | -2.48
44 | Cn1nc(C(=O)Nc2cccnc2)c2ccccc2c1=O | 12.4
45 | C#CCOc1ccc(/C=C2/C(=O)ON=C2C)cc1Br | 19.7
46 | Cc1ccc(Nc2nnc(SCC(=O)c3ccc(O)cc3O)s2)cc1 | 20.7

Row | Structure (SMILES) | hERG current change (%, negative = inhibition) at 1uM [%]
47 | CCc1ccc(N2C(=O)Cc3c2nc(N)c(C#N)c3N)cc1 | 11.5
48 | NC1=NC(=O)C(Cc2ccc(Br)cc2)S1 (centres unmarked) | 14.9
49 | O=C(C1CC1)N(Cc1nc2ccccc2c(=O)[nH]1)Cc1cccs1 | 6.85
50 | Cc1ccc(CN2CCN(/N=C\C(Br)=C\c3ccccc3)CC2)cc1 | 7.53
51 | Cc1cccc2sc(NC(=O)CN3C(=O)NC4(CCCC4)C3=O)nc12 | -2.61
52 | Cc1ccccc1C(OCC(O)CN1CCN(CCO)CC1)c1ccccc1.O=C(O)C(=O)O (centres unmarked) | 6.37
53 | Cc1nn(-c2ccccc2)c2sc(C(=O)NC3CC3)cc12 | -1.41
54 | CCOC(=O)N(c1ccccc1)P1(=S)OCC(C)O1 (centres unmarked) | 21.6
55 | Cc1c(N(C)S(=O)(=O)c2cccc(C(=O)NC(C)C)c2)c(=O)n(-c2ccccc2)n1C | 22.7
56 | COc1ccc(-c2nc3c(c(=O)[nH]c(=O)n3Cc3ccccc3)n2CCO)cc1 | 14.9
57 | O=C(CN(Cc1ccccc1Cl)C(=O)Cn1nnc(-c2cccs2)n1)NCC1CCCO1 (centres unmarked) | 3.73
58 | COCC(=O)N1CCC(Oc2ccc(C(=O)NCc3cc(C(C)C)no3)cc2)CC1 | -5.23
59 | CCN(CC)S(=O)(=O)c1ccc(Cl)c(NC(=S)NC(=O)C2CCCC2)c1 | 11.5
60 | CCOc1cccc2cc(C(=O)N3CCN(C/C=C/c4ccccc4)CC3)c(=O)oc12 | -0.522
61 | Cc1nnsc1C(=O)N1CCN(c2ccc(C#N)cn2)CC1 | 3.48
62 | O=C(NCCCN1CCOCC1)c1ccc2c(c1)N(Cc1cccc(Cl)c1)C(=O)CS2 | 7.31
63 | Cc1cccc(C(=O)NCCN2CCOCC2)c1[N+](=O)[O-] | 6.17
64 | NS(=O)(=O)c1ccccc1NC(=O)c1c(O)c2ccccc2[nH]c1=O | 11.8
65 | CCOc1ccc(S(=O)(=O)NNS(=O)(=O)c2ccc(C)cc2C)cc1 | 9.15
66 | CN1C(=O)CC(C(=O)Nc2ccccc2F)SC1=Nc1ccc2c(c1)OCO2 (centres unmarked) | 7.97
67 | COC(=O)c1ccc(-c2ncc(-c3cccc4ccccc34)o2)cc1 | 11.8
68 | CCOC(=O)N1CCN(S(=O)(=O)c2ccc(C(=O)NNc3nc4c(C)cc(C)cc4s3)cc2)CC1 | 9.54
69 | COc1ccccc1C(CNC(=O)COc1cc(C)ccc1Cl)N1CCCC1 (centres unmarked) | -0.736

Row | Structure (SMILES) | hERG current change (%, negative = inhibition) at 1uM [%]
70 | CC(=O)c1cccc(NC(=O)CSc2nc(=O)n(CCN3CCOCC3)c3c2CCC3)c1 | -0.182
71 | CCOC(=O)C1=C(NC(=S)NC(=O)c2ccccc2)c2ccccc2CC1(C)C | -1.99
72 | Cc1c(C(=O)O)sc2nc(SCC(=O)Nc3ccc(S(=O)(=O)NCCCC(=O)O)cc3)[nH]c(=O)c12 | 12.1
73 | NC(N)=N/N=C/c1c(Cl)cccc1Cl | 16.7
74 | COc1ccc(C2CC(C(F)(F)F)n3nc(C(=O)Nc4ccc5c(c4)OCO5)cc3N2)cc1 (centres unmarked) | 10.7
75 | COc1ccc(NC(C#N)c2ccccc2OCc2ccccc2)cc1 (centres unmarked) | 14.3
76 | Cc1cccc(NCc2ccccc2O)c1 | 12
77 | CCc1oc(C(=O)O)cc1CN(CC)CC.Cl | 13.4
78 | CC(C)(C)S(=O)(=O)c1cnc2c(-c3ccc(Cl)cc3)cnn2c1N | 8.97
79 | O=C1CC(N2CCOCC2)C(=O)N1c1ccc(Cl)cc1 (centres unmarked) | 7.57
80 | CCOC(=O)c1sc2cccc(Cl)c2c1N | 4.86
81 | CCn1c(SCC(=O)N2CCCc3ccccc32)nc2c1c(=O)n(C)c(=O)n2C | -2.02
82 | COc1ccc(NC(C)=O)cc1S(=O)(=O)Nc1ccc(OCc2ccccc2)cc1 | 12.4
83 | CCn1c(SCC(=O)Nc2nccs2)nnc1-c1ccccc1 | 3.94
84 | CC(=O)N1CCOc2ccc(S(=O)(=O)N3CC(C)CC(C)C3)cc21 (centres unmarked) | 4.86
85 | CC12CCCCC1=NC(c1ccc(Br)cc1)N2O (centres unmarked) | -2.43
86 | S=c1[nH]nc(-c2ccccc2)n1/N=C/c1cccs1 | 8.87
87 | COc1c(Cl)cc(Cl)cc1CNCCO.Cl | 6.59
88 | Cc1ccc(NC(=O)CN2C(=O)c3ccccc3C2=O)cc1 | 13.8
89 | O=C(Nc1cccc(-c2cn3ccccc3n2)c1)c1cc2ccccc2oc1=O | 17
